Measured values reported in the supplement of paper PMC3334620.
Over roughly 33,000 sequences, “E-score (-0.5 to 0.5)” has its median near -0.054; the highest 2% begin near 0.39. The list shows a part of the results.

target: Ylr278c (UniProt Q05854); test: PBM E-score (8-mer binding enrichment) (E-score (-0.5 to 0.5)); higher = stronger / more preferred TF binding; most listed sequences are background and not binding sites; conditions: protein concentration: 200 nM; construct: GST-DNA-binding domain
How it was run: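 Detection of bound protein used fluorescent anti-GST, with scans normalised by masliner. The proteins were GST-tagged yeast transcription factors applied at about 100-200 nM to universal all-10-mer Agilent arrays made double-stranded by primer extension. Each ungapped eight-base word, pooled with its reverse complement, was scored with an E-score from the Universal PBM Analysis Suite.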

Row | Sequence | PBM E-score
1 | CTTCGAGC | 0.197
2 | AAAATCTC | -0.109
3 | CTGACCAC | -0.167
4 | GCCAAGAC | -0.173
5 | ATTCGCCA | -0.0788
6 | AGAGCAGG | -0.15
7 | TATCGAGA | -0.189
8 | CCCAGGGG | -0.172
9 | ACAAGACT | -0.21
10 | GGTAGCCA | -0.186
11 | GGTTGCGA | -0.00595
12 | CGGGGTTA | 0.437
13 | AAGTTGCG | 0.135
14 | AATGTTGC | -0.0969
15 | ATAGCAAT | -0.0301
16 | CCCGCTCC | 0.197
17 | CAGGCACG | 0.0257
18 | AGATTGGC | -0.0621
19 | AAGGCCGC | 0.188
20 | CTTGATTA | -0.0445
21 | CTATATCA | -0.0773
22 | GGTGGACA | 0.113
23 | AAATTCGG | 0.282
24 | ATAGAGTG | -0.0286
25 | ACGTTCGA | -0.254

Row | Sequence | PBM E-score
26 | AAAATGTA | -0.0708
27 | ATGACCAG | -0.212
28 | AGATGAAC | 0.0555
29 | TAGGGAAA | 0.0311
30 | CTGTGTAA | -0.19
31 | AATCATAT | -0.126
32 | CAGGATAC | -0.171
33 | CTTTCATA | -0.103
34 | AAGCCTCC | 0.0849
35 | GTGACAAC | -0.0332
36 | GCTAGAGA | -0.175
37 | AAAATAGG | 0.0857
38 | CCGGCGCC | 0.422
39 | GAGATGAA | 0.073
40 | GAAAGACC | -0.0525
41 | CGACTCTC | -0.0349
42 | ACGGTTCG | 0.116
43 | GACGTTAA | -0.017
44 | TCAACTAA | -0.103
45 | ACGATAGG | -0.0767
46 | AGAGTAAC | 0.0213
47 | GTCTGGCA | 0.00936
48 | AACTTAGG | -0.156
49 | TGTTCAAA | -0.103
50 | AGGTGTCA | -0.0131

Row | Sequence | PBM E-score
51 | GGGTGCGA | 0.0646
52 | CCATACAA | -0.208
53 | AAAAATCA | -0.00065
54 | GTTCAGGA | -0.0137
55 | CCGAAAAA | 0.337
56 | GAGACGAC | 0.00276
57 | CAAATTAC | -0.00326
58 | CTTAGGAA | -0.0471
59 | ACCCGAAG | -0.0444
60 | CACTTTCC | 0.162
61 | GCGTTAGC | -0.167
62 | TGTGTAAA | 0.0194
63 | ACCGTAGT | 0.198
64 | AACAATCA | -0.147
65 | ATGAATTC | 0.0522
66 | AAACCCAA | 0.0205
67 | CAATCACA | -0.2
68 | ATCATAGG | 0.0574
69 | CCAAACTC | 0.0397
70 | AACGCTCG | -0.0142
71 | GATGGGGC | -0.023
72 | CGACCTAC | -0.109
73 | ACCCGCGC | 0.284
74 | GGCCTACA | 0.0947
75 | CCGTACAG | 0.0394

Row | Sequence | PBM E-score
76 | AAAATCGC | 0.0951
77 | CGGGGAAC | 0.341
78 | CTGTTCGC | 0.0595
79 | GTTACTAA | -0.176
80 | GCCCACCC | 0.151
81 | CTGGGGTA | -0.0474
82 | ATACCGTA | 0.0382
83 | GTCGGGTA | 0.109
84 | GGGTCTAA | -0.104
85 | CTTAGATA | -0.0726
86 | ATGGCCAT | 0.0373
87 | AATCGCCT | -0.0165
88 | GTTGTGAA | -0.19
89 | ACGGGAAT | 0.228
90 | CTATTGTC | 0.00153
91 | ACCAAGTA | -0.213
92 | TCCTCTCA | -0.195
93 | GATGGAAA | 0.0573
94 | ACGGCAGG | -0.064
95 | ATTTACTA | 0.0268
96 | GTATATGA | -0.0787
97 | CCGGATAA | 0.417
98 | GGGTTCAA | 0.0137
99 | ATTTTTCG | 0.125
100 | CTCTCCCA | -0.148

Row | Sequence | PBM E-score
101 | GTTGGAGA | -0.0658
102 | CACCGTTA | -0.064
103 | AGGCTAAA | -0.054
104 | GTCTATGA | -0.252
105 | CCGGCAAG | 0.363
106 | AAATATTG | 0.0609
107 | AAGGATCC | -0.0717
108 | AATGATTA | -0.134
109 | GGCGACAC | 0.156
110 | CGTCTCGA | -0.0808
111 | AGTTCATC | -0.018
112 | AAGGATGT | -0.176
113 | GGCGGGTA | 0.0566
114 | CAAAACAA | -0.327
115 | GACATTCC | -0.0427
116 | AGGCGCTA | -0.146
117 | CCGCCCAC | 0.217
118 | CACTCATG | -0.182
119 | ACGCACAG | -0.0483
120 | CTTGCACC | 0.00187
121 | AAGGGCTA | -0.124
122 | CGAGGATC | 0.045
123 | GGGTGACC | 0.0583
124 | CCTGGGAG | -0.0828
125 | AACGTTAC | -0.249

Row | Sequence | PBM E-score
126 | AACTATAC | -0.0813
127 | GCGATGCA | -0.0585
128 | GAAGATCA | -0.0645
129 | CGAACAGA | 0.0283
130 | ACCGACAT | 0.129
131 | GTCGCGAA | 0.0484
132 | ACCAAACC | 0.0834
133 | TATCCGAA | 0.371
134 | CCGGGTTC | 0.337
135 | GAGAGCCA | -0.285
136 | GCCAGGTA | -0.105
137 | CCAGGCTC | -0.135
138 | AAGATCAC | -0.147
139 | AATGGAGT | -0.128
140 | ACCTAGCT | -0.1
141 | AAAATCAT | -0.087
142 | ATGTCCTG | -0.0169
143 | ATTGGATG | -0.211
144 | AGGTCTTC | -0.228
145 | GATCTTTA | -0.151
146 | GACCACCA | -0.0382
147 | GTGCCCCA | -0.192
148 | AATTTCTA | 0.015
149 | AAACCCGG | 0.428
150 | TCAGACAA | -0.106

Row | Sequence | PBM E-score
151 | CAGATAAA | -0.142
152 | GGGCGATA | -0.0374
153 | AATATCGG | 0.395
154 | GTTGCCAA | -0.209
155 | CGGTCTGA | 0.143
156 | AATCGCAG | -0.0716
157 | ATTCTGGA | -0.0507
158 | CGAGGAAC | 0.188
159 | AGAAATGC | 0.086
160 | ACTATTAA | -0.125
161 | AAGCAGCA | -0.119
162 | ATTAGTCA | -0.00594
163 | CAGTTGGC | -0.169
164 | ACGCGATA | -0.00099
165 | GGCCATTA | 0.0135
166 | CGTGTACC | 0.0104
167 | CACATACG | -0.209
168 | CTGTTCAA | -0.156
169 | CACGCTTC | -0.0833
170 | CCCATTTC | -0.0594
171 | GTGCGCTA | -0.125
172 | AAATAGCT | -0.0174
